Assay results from patent US11685745B2, “Substituted benzoxazole and benzofuran compounds as PDE7 inhibitors” (Dart NeuroScience, LLC, priority 2017, dated 2023).

Target: N-terminal truncated recombinant human PDE7B enzyme (Homo sapiens (Human), UniProt Q9NP56)
Test: biochemical

SMILES: CC(C)N(C)Cc1cc2cc(Cl)c3c(c2o1)C1(CCCCC1)NC(=O)N3 [Example 530, 5′-Chloro-2′-{[methyl(propan-2-yl)amino]methyl}-7′,8′-dihydro-6′H-spiro[cyclohexane-1,9′-furo[2,3-f]quinazoline]-7′-one]
- pIC50: 6.00 to 7.00

SMILES: O=C1Nc2c(Cl)cc3nc(CNCCOC(F)(F)F)oc3c2C2(CCCCC2)N1 [Example 138, 5-Chloro-2-({[2-(trifluoromethoxy)ethyl]amino}methyl)-7,8-dihydro-6H-spiro[[1,3]oxazolo[5,4-f]quinazoline-9,1′-cyclohexane]-7-one]
- pIC50: 7.00 to 8.00

SMILES: CCOC(=O)c1cn2c(n1)CN(Cc1cc3cc(Cl)c4c(c3o1)C1(CCCCC1)NC(=O)N4)CC2 [Example 525, Ethyl 7-{5′-chloro-7′-oxo-7′,8′-dihydro-6′H-spiro[cyclohexane-1,9′-furo[2,3-f]quinazoline]-2′-ylmethyl}-5H,6H,7H,8H-imidazo[1,2-a]pyrazine-2-carboxylate]
- pIC50: 6.00 to 7.00

SMILES: O=C1Nc2c(Cl)cc3cc(CN4CCCC(O)C4)oc3c2C2(CCCCC2)N1 (centres unmarked) [Example 501, 5′-Chloro-2′-{(3-hydroxypiperidin-1-yl)methyl}-7′,8′-dihydro-6′H-spiro[cyclohexane-1,9′-furo[2,3-f]quinazoline]-7′-one]
- pIC50: 6.00 to 7.00

SMILES: O=C1Nc2c(Cl)cc3nc(C(=O)N4CCN5CCC[C@H]5C4)oc3c2C2(CCCCC2)N1 [Example 210, 2-[(8aS)-Octahydropyrrolo[1,2-a]piperazine-2-carbonyl]-5-chloro-7,8-dihydro-6H-spiro[[1,3]oxazolo[5,4-f]quinazoline-9,1′-cyclohexane]-7-one]
- pIC50: 7.00 to 8.00

SMILES: O=C1Nc2c(Cl)cc3cc(CN4CCN(C5COC5)CC4)oc3c2C2(CCCCC2)N1 [Example 542, 5′-Chloro-2′-{[4-(oxetan-3-yl)piperazin-1-yl]methyl}-7′,8′-dihydro-6′H-spiro[cyclohexane-1,9′-furo[2,3-f]quinazoline]-7′-one]
- pIC50: 6.00 to 7.00

SMILES: O=C1Nc2c(Cl)cc3cc(CNC4CCOCC4)oc3c2C2(CCCCC2)N1 [Example 476, 5′-Chloro-2′-{[(oxan-4-yl)amino]methyl}-7′,8′-dihydro-6′H-spiro[cyclohexane-1,9′-furo[2,3-f]quinazoline]-7′-one]
- pIC50: 6.00 to 7.00

SMILES: CN(Cc1nc2cc(Cl)c3c(c2o1)C1(CCCCC1)NC(=O)N3)CC(F)(F)F [Example 88, 5-Chloro-2-{[methyl(2,2,2-trifluoroethyl)amino]methyl}-7,8-dihydro-6H-spiro[[1,3]oxazolo[5,4-f]quinazoline-9,1′-cyclohexane]-7-one]
- pIC50: 7.00 to 8.00

SMILES: CCO[C@@H]1CCN(Cc2nc3cc(Cl)c4c(c3o2)C2(CCCCC2)NC(=O)N4)C1 [Example 119, 5-Chloro-2-{[(3R)-3-ethoxypyrrolidin-1-yl]methyl}-7,8-dihydro-6H-spiro[[1,3]oxazolo[5,4-f]quinazoline-9,1′-cyclohexane]-7-one]
- pIC50: 7.00 to 8.00

SMILES: O=C1Nc2c(Cl)cc3nc(CN4CCN(C5COC5)CC4)oc3c2C2(CCCCC2)N1 [Example 50, 5-Chloro-2-{[4-(oxetan-3-yl)piperazin-1-yl]methyl}-7,8-dihydro-6H-spiro[[1,3]oxazolo[5,4-f]quinazoline-9,1′-cyclohexane]-7-one]
- pIC50: 6.00 to 7.00

SMILES: CC(=O)NC1CCN(Cc2cc3cc(Cl)c4c(c3o2)C2(CCCCC2)NC(=O)N4)CC1 [Example 560, N-(1-{5′-Chloro-7′-oxo-7′,8′-dihydro-6′H-spiro[cyclohexane-1,9′-furo[2,3-f]quinazoline]-2′-ylmethyl}piperidin-4-yl)acetamide]
- pIC50: 6.00 to 7.00

SMILES: O=C1Nc2c(Cl)cc3nc(CCO)oc3c2C2(CCCCC2)N1 [Example 22, 5′-Chloro-2′-(2-hydroxyethyl)-6′H-spiro[cyclohexane-1,9′-oxazolo[5,4-f]quinazolin]-7′(8′H)-one]
- pIC50: 7.00 to 8.00

SMILES: CC(C)CN(C)C(=O)c1cc2cc(Cl)c3c(c2o1)C1(CCCCC1)NC(=O)N3 [Example 250, 5′-Chloro-N-methyl-N-(2-methylpropyl)-7′-oxo-7′,8′-dihydro-6′H-spiro[cyclohexane-1,9′-furo[2,3-f]quinazoline]-2′-carboxamide]
- pIC50: 7.00 to 8.00

SMILES: CN(C)CC1CCN(C(=O)c2cc3cc(Cl)c4c(c3o2)C2(CCCCC2)NC(=O)N4)CC1 [Example 443, 5′-Chloro-2′-{4-[(dimethylamino)methyl]piperidine-1-carbonyl}-7′,8′-dihydro-6′H-spiro[cyclohexane-1,9′-furo[2,3-f]quinazoline]-7′-one]
- pIC50: 7.00 to 8.00

SMILES: COC1CCN(C(=O)c2nc3cc(Cl)c4c(c3o2)C2(CCCCC2)NC(=O)N4)CC1 [Example 7, 5′-Chloro-2′-(4-methoxypiperidine-1-carbonyl)-6′H-spiro[cyclohexane-1,9′-oxazolo[5,4-f]quinazolin]-7′(8′H)-one]
- pIC50: 7.00 to 8.00

SMILES: CN(Cc1ccc(-n2ccnc2)cc1)C(=O)c1cc2cc(Cl)c3c(c2o1)C1(CCCCC1)NC(=O)N3 [Example 448, 5′-Chloro-N-{[4-(1H-imidazol-1-yl)phenyl]methyl}-N-methyl-7′-oxo-7′,8′-dihydro-6′H-spiro[cyclohexane-1,9′-furo[2,3-f]quinazoline]-2′-carboxamide]
- pIC50: 7.00 to 8.00

SMILES: C[C@@H](NCc1nc2cc(Cl)c3c(c2o1)C1(CCCCC1)NC(=O)N3)C(=O)N(C)C [Example 143, (2R)-2-({5-Chloro-7-oxo-7,8-dihydro-6H-spiro[[1,3]oxazolo[5,4-f]quinazoline-9,1′-cyclohexane]-2-ylmethyl}amino)-N,N-dimethylpropanamide]
- pIC50: 7.00 to 8.00

SMILES: O=C1Nc2c(Cl)cc3cc(CN4CCn5ccnc5C4)oc3c2C2(CCCCC2)N1 [Example 491, 5′-Chloro-2′-{5H,6H,7H,8H-imidazo[1,2-a]pyrazin-7-ylmethyl}-7′,8′-dihydro-6′H-spiro[cyclohexane-1,9′-furo[2,3-f]quinazoline]-7′-one]
- pIC50: 7.00 to 8.00

SMILES: O=C1Nc2c(Cl)cc3cc(C(=O)NCCCN4CCOCC4)oc3c2C2(CCCCC2)N1 [Example 281, 5′-Chloro-N-[3-(morpholin-4-yl)propyl]-7′-oxo-7′,8′-dihydro-6′H-spiro[cyclohexane-1,9′-furo[2,3-f]quinazoline]-2′-carboxamide]
- pIC50: 7.00 to 8.00

SMILES: CN(CCO)Cc1cc2cc(Cl)c3c(c2o1)C1(CCCCC1)NC(=O)N3 [Example 500, 5′-Chloro-2′-{[(2-hydroxyethyl)(methyl)amino]methyl}-7′,8′-dihydro-6′H-spiro[cyclohexane-1,9′-furo[2,3-f]quinazoline]-7′-one]
- pIC50: 6.00 to 7.00

SMILES: CC1(C)CN(C(=O)c2cc3cc(Cl)c4c(c3o2)C2(CCCCC2)NC(=O)N4)CCO1 [Example 431, 5′-Chloro-2′-(2,2-dimethylmorpholine-4-carbonyl)-7′,8′-dihydro-6′H-spiro[cyclohexane-1,9′-furo[2,3-f]quinazoline]-7′-one]
- pIC50: 7.00 to 8.00

SMILES: O=C1Nc2c(Cl)cc3cc(C(=O)N4CCN(CCF)CC4)oc3c2C2(CCCCC2)N1 [Example 27, 5′-Chloro-2′-(4-(2-fluoroethyl)piperazine-1-carbonyl)-6′H-spiro[cyclohexane-1,9′-furo[2,3-f]quinazolin]-7′(8′H)-one]
- pIC50: 7.00 to 8.00

SMILES: O=C1Nc2c(Cl)cc3nc(CNCC4CCCCO4)oc3c2C2(CCCCC2)N1 (centres unmarked) [Example 105, 5-Chloro-2-{[(oxan-2-ylmethyl)amino]methyl}-7,8-dihydro-6H-spiro[[1,3]oxazolo[5,4-f]quinazoline-9,1′-cyclohexane]-7-one]
- pIC50: 7.00 to 8.00

SMILES: CC(C)C(=O)CNCc1nc2cc(Cl)c3c(c2o1)C1(CCCCC1)NC(=O)N3 [Example 106, 5-Chloro-2-{[(3-methyl-2-oxobutyl)amino]methyl}-7,8-dihydro-6H-spiro[[1,3]oxazolo[5,4-f]quinazoline-9,1′-cyclohexane]-7-one]
- pIC50: 6.00 to 7.00

SMILES: CCN(CCN(C)C)Cc1cc2cc(Cl)c3c(c2o1)C1(CCCCC1)NC(=O)N3 [Example 547, 5′-Chloro-2′-({[2-(dimethylamino)ethyl](ethyl)amino}methyl)-7′,8′-dihydro-6′H-spiro[cyclohexane-1,9′-furo[2,3-f]quinazoline]-7′-one]
- pIC50: 6.00 to 7.00

SMILES: CN1CC2CN(Cc3nc4cc(Cl)c5c(c4o3)C3(CCCCC3)NC(=O)N5)CC2C1 (centres unmarked) [Example 114, 5-Chloro-2-({5-methyl-octahydropyrrolo[3,4-c]pyrrol-2-yl}methyl)-7,8-dihydro-6H-spiro[[1,3]oxazolo[5,4-f]quinazoline-9,1′-cyclohexane]-7-one]
- pIC50: 6.00 to 7.00

SMILES: COCCNCc1nc2cc(Cl)c3c(c2o1)C1(CCCCC1)NC(=O)N3 [Example 4, 5′-Chloro-2′-(((2-methoxyethyl)amino)methyl)-6′H-spiro[cyclohexane-1,9′-oxazolo[5,4-f]quinazolin]-7′(8′H)-one]
- pIC50: 7.00 to 8.00

SMILES: CN(C)CCNC(=O)c1cc2cc(Cl)c3c(c2o1)C1(CCCCC1)NC(=O)N3 [Example 463, 5′-Chloro-N-[2-(dimethylamino)ethyl]-7′-oxo-7′,8′-dihydro-6′H-spiro[cyclohexane-1,9′-furo[2,3-f]quinazoline]-2′-carboxamide]
- pIC50: 6.00 to 7.00

SMILES: O=C1Nc2c(Cl)cc3cc(CN[C@H]4CCOC4)oc3c2C2(CCCCC2)N1 [Example 579, 5′-Chloro-2′-({[(3S)-oxolan-3-yl]amino}methyl)-7′,8′-dihydro-6′H-spiro[cyclohexane-1,9′-furo[2,3-f]quinazoline]-7′-one]
- pIC50: 7.00 to 8.00

SMILES: CN1CCC(NC(=O)c2cc3cc(Cl)c4c(c3o2)C2(CCCCC2)NC(=O)N4)CC1=O (centres unmarked) [Example 371, 5′-Chloro-N-(1-methyl-2-oxopiperidin-4-yl)-7′-oxo-7′,8′-dihydro-6′H-spiro[cyclohexane-1,9′-furo[2,3-f]quinazoline]-2′-carboxamide]
- pIC50: 7.00 to 8.00

SMILES: O=C1Nc2c(Cl)cc3nc(CNC4CCCC4(F)F)oc3c2C2(CCCCC2)N1 (centres unmarked) [Example 165, 5-Chloro-2-{[(2,2-difluorocyclopentyl)amino]methyl}-7,8-dihydro-6H-spiro[[1,3]oxazolo[5,4-f]quinazoline-9,1′-cyclohexane]-7-one]
- pIC50: 7.00 to 8.00

SMILES: O=C1Nc2c(Cl)cc3cc(CN4CCCC(Cn5ccnc5)C4)oc3c2C2(CCCCC2)N1 (centres unmarked) [Example 511, 5′-Chloro-2′-{[3-(1H-imidazol-1-ylmethyl)piperidin-1-yl]methyl}-7′,8′-dihydro-6′H-spiro[cyclohexane-1,9′-furo[2,3-f]quinazoline]-7′-one]
- pIC50: 7.00 to 8.00

pIC50: −log10 of the molar value.
